# Measurements: PubChem BioAssay AID686979 (National Center for Advancing Translational Sciences (NCATS), 2013)
# Out of some 420,000 compounds screened, about 50,000 (12%) were called active. Inconclusive results, whose numbers are uncertain, are shown with a selection of clear calls. The call rests on the fitted dose curve; in most records, active means well fitted inhibition curve with a large enough effect; inconclusive means small, poorly fitted or top-dose-only effect; inactive means flat fitted curve, though single readings scatter. No potency is given beside an inconclusive call; the fits are too rough.
# Test: qHTS for Inhibitors of human tyrosyl-DNA phosphodiesterase 1 (TDP1): qHTS in cells in presence of CPT; further: nearly all actives have a fitted effect of over 55% in size
# Details: chicken DT40 Tdp1-/-;hTDP1 cells + 20 nM CPT, ATP luminescence, 48 h; activity change, negative = growth inhibition: at 46.2 µM (top of the series) unless noted
# In short: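 Chicken DT40 Tdp1-/- cells complemented with human TDP1, 400 cells/well, exposed to compounds plus 20 nM camptothecin for at least 48 h at 37 C; viability read as ATP content by CellTiter-Glo luminescence.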
# On the % scale 0 is the no-effect control and ±100 the full control effect; potency means the concentration at half of the fitted maximal effect; tags describe the fitted curve by direction and shape.
Structure (SMILES),"activity change, negative = growth inhibition",Potency
COC(=O)c1cc(S(=O)(=O)N2CCN(Cc3ccccc3)CC2)cn1C,inactive: -19.9%,–
O=C(NCc1ccco1)C1CCCN(S(=O)(=O)c2ccc(Cl)cc2)C1 (configuration not stated),–,"inconclusive [inhibitor, partial curve]"
COc1ccc(/C=C2\CCc3ccccc3C2=O)cc1Cn1cccn1,–,active: 20.6 µM
COc1ccc(CC(=O)OCc2nnc(-c3ccccc3)o2)cc1,inactive: -2.34%,–
Cc1cc(=O)[nH]c2c(C)cc(S(=O)(=O)Nc3ccc(O)cc3)cc12,inactive: -16.7%,–
CCOC(=O)c1ccccc1NC(=O)CN(c1ccccc1OCC)S(C)(=O)=O,–,"inconclusive [inhibitor, single point]"
COc1ccc(N2CCN(C(=O)Cn3cnc4nc5c(cc4c3=O)CCCC5)CC2)cc1,inactive: -5.24%,–
Cn1c(N)c(C(=O)COC(=O)c2ccc3ccccc3c2)c(=O)n(C)c1=O,inactive: -7.02%,–
NC(c1ccccc1)c1csc(NC(=O)Nc2ccccc2Oc2ccccc2)n1 (configuration not stated),–,"inconclusive [inhibitor, single point]"
S=C(Nc1ccc(Br)cc1)NC1CCN(Cc2ccccc2)CC1,–,active: 16.4 µM
O=S(=O)(Nc1cccc(S(=O)(=O)N2CCCC2)c1)c1cccs1,inactive: -0.382%,–
COC(=O)c1cc(OC)c(OC)cc1NC(=O)CN1C(=O)c2ccccc2C1=O,inactive: 0.0954%,–
Cc1ccc(N2CC(C(=O)OCC(=O)Nc3c(C)cccc3C)CC2=O)cc1 (configuration not stated),inactive: -10.1%,–
CC(=O)c1cccc(OCC(=O)c2cc(C)n(-c3cc(C)on3)c2C)c1,–,active: 17.8 µM
COc1cccc(CNC(=O)C2CCN(S(=O)(=O)c3ccc4c(c3)NC(=O)C(C)S4)CC2)c1 (configuration not stated),–,"inconclusive [inhibitor, single point]"
O=C(COC(=O)COc1ccccc1)NCc1ccco1,inactive: 5.32%,–
Cc1ccc(NC(=O)N2CCCN(Cc3ccc(F)cc3)C2)cc1C,–,"inconclusive [inhibitor, single point]"
O=C(COC(=O)c1ccccc1-c1ccccc1[N+](=O)[O-])c1ccccc1,–,"inconclusive [inhibitor, single point]"
COc1nc(N(C)C)nc(N(C#N)CCOC(C)=O)n1,–,"inconclusive [inhibitor, single point]"
CC(Sc1nc2ccccc2c(=O)n1CC1CCCO1)C(=O)N(C)Cc1ccccc1 (configuration not stated),–,"inconclusive [inhibitor, single point]"
COc1ccc(/C=C\c2onc(C)c2S(=O)(=O)N2CCC(C(=O)Nc3ccccc3OC)CC2)cc1,–,"inconclusive [inhibitor, partial curve]"
CC(NC(=O)Cc1ccc(S(=O)(=O)N2CCOCC2)s1)c1ccc(Br)cc1 (configuration not stated),–,"inconclusive [inhibitor, single point]"
Cc1ccc(-n2c(O)c(/C=N/c3ncn[nH]3)c3ccccc3c2=O)cc1,–,"inconclusive [inhibitor, single point]"
Cc1ccc(N2CC(NC(=O)C(=O)c3c(C)[nH]c4ccccc34)CC2=O)cc1C (configuration not stated),inactive: -10.2%,–

Structure (SMILES),"activity change, negative = growth inhibition",Potency
CCOC(=O)C(=NC1CCS(=O)(=O)C1)NNc1cc(Cl)ccc1Cl (configuration not stated),inactive: -4.34%,–
Cc1cc(NC(=O)CCSc2nc(-c3ccco3)cc(C(F)(F)F)n2)n(-c2ccccc2)n1,–,"inconclusive [inhibitor, single point]"
O=C1NC(c2ccc(Cl)cc2)Nc2ccccc21 (configuration not stated),inactive: 6.32%,–
CCOC(=O)N1CCC(NC(=O)C2CCCN(Cc3nc(-c4cccc(Cl)c4)oc3C)C2)CC1 (configuration not stated),–,active: 0.82 µM
C[C@@H]1CCCCO[C@H](CN(C)S(=O)(=O)c2cn(C)cn2)[C@@H](C)CN([C@H](C)CO)C(=O)c2cc(NC(=O)c3ccncc3)ccc2O1,inactive: 5.15%,–
Nc1nncn1C(=O)CCCOc1ccc(Cl)cc1Cl,–,"inconclusive [inhibitor, partial curve]"
CC(C)c1cccc(OCCCCN(C)C)c1,–,"inconclusive [inhibitor, single point]"
COc1ccc(OC)c(NC(=O)CSc2c3c(nc4ccccc24)CCCC3)c1,–,"inconclusive [inhibitor, single point]"
Cc1cccc(N2CCN(C(=O)c3cc(S(=O)(=O)N(C)C)ccc3N3CCCC3)CC2)c1C,–,"inconclusive [inhibitor, single point]"
COc1ccc(C=C(C(=O)c2ccccc2)c2ccccc2)cc1,–,"inconclusive [inhibitor, single point]"
N#Cc1ccccc1NC(=S)NC(=O)c1cccnc1,inactive: 8.4%,–
CCOC(=O)c1c(NC(=O)CN2CCN(C)CC2)sc(C(=O)Nc2ccccc2)c1C,–,"inconclusive [inhibitor, single point]"
CCC(CC)NC(=O)CN1CCN(S(=O)(=O)c2cccs2)CC1,inactive: 11.3%,–
CN(CCC#N)c1ccc(C=C(C#N)c2cccc(C(F)(F)F)c2)cc1,–,active: 16.4 µM
O=C1/C(=C/c2ccccn2)COc2ccccc21,–,active: 2.06 µM
Cc1ccc(-c2nc3c(Cl)cc(Cl)cc3c(=O)n2O)cc1,–,"inconclusive [inhibitor, single point]"
CN1CCN(c2ccc(CNC(=O)c3ccc(-c4ccc(F)c(F)c4)c4ccoc34)cc2)CC1,–,"inconclusive [inhibitor, single point]"
COc1ccccc1OC(C)C(=O)NCC1(N2CCOCC2)CCCCC1 (configuration not stated),–,active: 23.1 µM
CCS(=O)(=O)N1N=C(c2ccc(C)cc2)CC1c1cc2ccc(OC)cc2nc1Cl (configuration not stated),–,"inconclusive [inhibitor, single point]"
O=C(NCC(c1ccco1)N1CCCC1)c1ccc(Cl)c(S(=O)(=O)N2CCc3ccccc32)c1 (configuration not stated),–,active: 8.2 µM
Cc1ccc(C(=O)CSc2nc(N)cc(=O)[nH]2)cc1C,–,"inconclusive [inhibitor, single point]"
O=C(Nc1ccc2nn(-c3ccccc3)nc2c1)c1cccnc1,–,"inconclusive [inhibitor, single point]"
COc1ccc(N(CC(=O)Nc2cccc(C(F)(F)F)c2)S(C)(=O)=O)cc1,–,"inconclusive [inhibitor, single point]"
